In the supplement of paper PMC8728848:
The list shows a part of the results.

What was measured:
Assay in all cases: glycan array binding signal (z-score within array); higher = stronger binding
Conditions in all cases: glycan notation: IUPAC condensed, linker removed
[1] = target: Gal(b1-3)GlcNAc(b1-2)Man(a1-3)[Gal(b1-3)GlcNAc(b1-2)Man(a1-6)]Man(b1-4)GlcNAc(b1-4)GlcNAc
Method in brief: (§1)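 Arrays were curated from the Consortium for Functional Glycomics database, 3228 in total, and kept only where the protein sequence was available. Binding is expressed as a within-array Z-score. This score was averaged across arrays of the same protein sequence at different concentrations or buffers and across linkers, and negative values can be read as non-binding.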

[2] = target: Gal(b1-3)GlcNAc(b1-2)Man(a1-3)[Gal(b1-3)GlcNAc(b1-2)Man(a1-6)]Man(b1-4)GlcNAc(b1-4)[Fuc(a1-6)]GlcNAc
Method in brief: as §1

[3] = target: Gal(b1-3)GlcNAc(b1-2)Man(a1-3)[GlcNAc(b1-4)][Gal(b1-3)GlcNAc(b1-2)Man(a1-6)]Man(b1-4)GlcNAc(b1-4)GlcNAc
Method in brief: as §1

[4] = target: Gal(b1-3)GlcNAc(b1-2)[Gal(b1-3)GlcNAc(b1-6)]Man(a1-6)[Gal(b1-3)GlcNAc(b1-2)Man(a1-3)]Man(b1-4)GlcNAc(b1-4)GlcNAc
Method in brief: as §1

[5] = target: Gal(b1-3)GlcNAc(b1-3)Gal(b1-3)GlcNAc
Method in brief: as §1

[6] = target: Gal(b1-3)GlcNAc(b1-3)Gal(b1-4)Glc
Method in brief: as §1

[7] = target: Gal(b1-3)GlcNAc(b1-3)Gal(b1-4)GlcNAc
Method in brief: as §1

[8] = target: Gal(b1-3)GlcNAc(b1-3)Gal(b1-4)GlcNAc(b1-2)Man(a1-3)[Gal(b1-3)GlcNAc(b1-3)Gal(b1-4)GlcNAc(b1-2)Man(a1-6)]Man(b1-4)GlcNAc(b1-4)GlcNAc
Method in brief: as §1

[9] = target: Gal(b1-3)GlcNAc(b1-3)Gal(b1-4)GlcNAc(b1-2)[Gal(b1-3)GlcNAc(b1-3)Gal(b1-4)GlcNAc(b1-6)]Man(a1-6)[Gal(b1-3)GlcNAc(b1-3)Gal(b1-4)GlcNAc(b1-2)Man(a1-3)]Man(b1-4)GlcNAc(b1-4)[Fuc(a1-6)]GlcNAc
Method in brief: as §1

[10] = target: Gal(b1-3)GlcNAc(b1-3)Gal(b1-4)GlcNAc(b1-3)Gal(b1-4)GlcNAc(b1-2)[Gal(b1-3)GlcNAc(b1-3)Gal(b1-4)GlcNAc(b1-3)Gal(b1-4)GlcNAc(b1-6)]Man(a1-6)[Gal(b1-3)GlcNAc(b1-3)Gal(b1-4)GlcNAc(b1-3)Gal(b1-4)GlcNAc(b1-2)Man(a1-3)]Man(b1-4)GlcNAc(b1-4)[Fuc(a1-6)]GlcNAc
Method in brief: as §1

[11] = target: Gal(b1-3)GlcNAc(b1-3)Gal(b1-4)GlcNAc(b1-6)[Gal(b1-3)GlcNAc(b1-3)]Gal(b1-4)Glc
Method in brief: as §1

[12] = target: Gal(b1-3)GlcNAc(b1-3)Gal(b1-4)[Fuc(a1-3)]GlcNAc
Method in brief: as §1

[13] = target: Gal(b1-3)GlcNAc(b1-3)Gal(b1-4)[Fuc(a1-3)]GlcNAc(b1-6)[Gal(b1-3)GlcNAc(b1-3)]Gal(b1-4)Glc
Method in brief: as §1

[14] = target: Gal(b1-3)GlcNAc(b1-3)GalNAc
Method in brief: as §1

[15] = target: Gal(b1-3)GlcNAc(b1-6)Gal(b1-4)GlcNAc
Method in brief: as §1

[16] = target: Gal(b1-3)GlcNAc(b1-6)GalNAc
Method in brief: as §1

[17] = target: Gal(b1-3)GlcNAc(b1-6)[Gal(b1-3)]GalNAc
Method in brief: as §1

Gal(b1-3)GlcNAc6S = target: Gal(b1-3)GlcNAc6S
Method in brief: as §1

[18] = target: Gal(b1-3)[Fuc(a1-4)]GlcNAc
Method in brief: as §1

[19] = target: Gal(b1-3)[Fuc(a1-4)]GlcNAc(b1-2)Man
Method in brief: as §1

[20] = target: Gal(b1-3)[Fuc(a1-4)]GlcNAc(b1-2)Man(a1-3)[Gal(b1-3)[Fuc(a1-4)]GlcNAc(b1-2)Man(a1-6)]Man(b1-4)GlcNAc(b1-4)[Fuc(a1-6)]GlcNAc
Method in brief: as §1

[21] = target: Gal(b1-3)[Fuc(a1-4)]GlcNAc(b1-3)Gal(b1-3)[Fuc(a1-4)]GlcNAc
Method in brief: as §1

[22] = target: Gal(b1-3)[Fuc(a1-4)]GlcNAc(b1-3)Gal(b1-4)[Fuc(a1-3)]GlcNAc
Method in brief: as §1

[23] = target: Gal(b1-3)[Fuc(a1-4)]GlcNAc(b1-6)GalNAc
Method in brief: as §1

[24] = target: Gal(b1-3)[GlcNAc(b1-6)]GalNAc
Method in brief: as §1

[25] = target: Gal(b1-3)[Neu5Ac(a2-6)]GalNAc
Method in brief: as §1

[26] = target: Gal(b1-3)[Neu5Ac(a2-6)]GlcNAc(b1-4)Gal(b1-4)Glc
Method in brief: as §1

[27] = target: Gal(b1-3)[Neu5Ac(b2-6)]GalNAc
Method in brief: as §1

Gal(b1-4)Gal = target: Gal(b1-4)Gal
Method in brief: as §1

[28] = target: Gal(b1-4)GalNAc(a1-3)[Fuc(a1-2)]Gal(b1-4)GlcNAc
Method in brief: as §1

B1: CvGal2 (Crassostrea virginica) (protein)
chain: MGSSHHHHHHSSGLVPRGSHMRIREAGKRKDTTKVYQIPDGLFPGQQVMLRGRVPWGSKSFSINFSATPRMGEGDILFHLNPRPSEGVCIRNALLNGSWGAEEKWQPYFPFDDGRSFSVKIEVTNDAFRTFVNGRPFVDFLHRTDFRAGKYLTLREGAEYYDVIFQSKPNIPLTTAIHNGMRIGKTIRIRGMCTAQDGFAINFNDNRNNIYFHFNARPAQRTVVRNSYFGSWGNEETAISKEFPFYPFLYFYASFVCMEDKFAVYVNDEHFIDFAHRGNPNNISVLQIKGSVNVLDTECLEPMGEDAMTEVDSGLENGDLFVLNGLMTERGKTFAVNFLNGFTENDDIALHFNPRKSTGEVVLNSRYGGAWQSEEKVALPGVFWSNRPLQVKVETKRNKFKIYVNGVDLAKYKIRGNVEDVHAVQVKGDVFLLETLLLKRLMKPVWERLTGGIRPGTWVTLQGTPKKNWQQFVVNFALDDTLDGDIAFHFNVRRGARQVVRNHRQSGAWGREETVTPFFAFDSEATFEIVFFVKEEKFLIYFNGKLFFEFVHRVPVERITHIYMDGDCNFYEPEVVI
For B1, the “glycan array binding signal (z-score)” value [1] was 0.832, the “glycan array binding signal (z-score)” value [2] was -0.164 and the “glycan array binding signal (z-score)” value [3] was 0.451. The “glycan array binding signal (z-score)” value [4] was 1.74, the “glycan array binding signal (z-score)” value [5] was 0.769 and the “glycan array binding signal (z-score)” value [6] was 1.17. The “glycan array binding signal (z-score)” value [7] was 0.004, the “glycan array binding signal (z-score)” value [8] was 0.49 and the “glycan array binding signal (z-score)” value [9] was 1.48. For the same binder, the “glycan array binding signal (z-score)” value [10] was 2.77, the “glycan array binding signal (z-score)” value [11] was 4.4 and the “glycan array binding signal (z-score)” value [12] was 0.146. The “glycan array binding signal (z-score)” value [13] was 1.32, the “glycan array binding signal (z-score)” value [14] was -0.255 and the “glycan array binding signal (z-score)” value [15] was 0.145. The “glycan array binding signal (z-score)” value [16] was -0.127, the “glycan array binding signal (z-score)” value [17] was 0.576 and the “glycan array binding signal (z-score)” value (Gal(b1-3)GlcNAc6S) was 0.52. The “glycan array binding signal (z-score)” value [18] was -0.326, the “glycan array binding signal (z-score)” value [19] was -0.321 and the “glycan array binding signal (z-score)” value [20] was -0.33. For the same binder, the “glycan array binding signal (z-score)” value [21] was -0.33, the “glycan array binding signal (z-score)” value [22] was -0.334 and the “glycan array binding signal (z-score)” value [23] was -0.317. For the same binder, the “glycan array binding signal (z-score)” value [24] was -0.317, the “glycan array binding signal (z-score)” value [25] was -0.338 and the “glycan array binding signal (z-score)” value [26] was 0.337. For the same binder, the “glycan array binding signal (z-score)” value [27] was -0.33, the “glycan array binding signal (z-score)” value (Gal(b1-4)Gal) was -0.34 and the “glycan array binding signal (z-score)” value [28] was 1.28.
